Where “and” joins values, the source holds several entries; their conditions need not be identical. Equal entries are not always repeated.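 Five concentrations, 48 hours, 96-well plates. Abbreviation: GI50, concentration required for 50% inhibition of growth. The concentration for full growth arrest is given as TGI.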 Square brackets hold non-standard residues; d marks the D form. Peptide text beside a SMILES is read from it. * marks the point of attachment. Fmoc = O=C(OCC1c2ccccc2-c2ccccc21)*; Nle = CCCC[C@H](N)C(=O)O; Cbz = O=C(OCc1ccccc1)*; Boc = CC(C)(C)OC(=O)*; OtBu = CC(C)(C)O* Where only a bound is given, the exact number is not on record here.

For this test, the system named is NCI-H322M lung. The test can be described thus: NCI tumour cell line growth inhibition, 48 h.
For the compound `O=c1c(Br)c(-c2ccccc2)[nH]c2ccccc12`, the TGI was > 100 µM.

As for `CNS(=O)(=O)NN(C)S(=O)(=O)c1ccc(OC)cc1`, the TGI was > 100 µM. As for `COc1ccc(-c2c3ccccc3c(-c3ccc(OCCBr)cc3)c3ccccc23)cc1`, the TGI was > 100 µM. `CC(NS(=O)(=O)c1ccc(Cl)cc1)C(=O)O` (stereo not drawn): the TGI was > 100 µM.

Take `CN(C)c1nc(N(C)C)sc(=O)n1`: the TGI is > 100 µM. On to `O=C1OC(c2ccc(O)c(F)c2)(c2ccc(O)c(F)c2)c2cccc3cccc1c23`, for which the TGI was > 25 µM. Take `COc1ccc2c3c([nH]c2c1CC=C(C)C)C(=O)C=C(C)C3=O`: the TGI is > 25 µM. As for `COCP1(=S)OC(C)CCN1C(C)C` (stereo not drawn), the TGI was > 100 µM. Same read-out and setting: the value for `CC12CCC3(C1)[C@H](CC2=O)C[C@@H](OC(=O)c1ccccc1)C1C(C)(CO)CCC[C@@]13C` (stereo partly drawn) was > 100 µM. Regarding `OC1(c2ccccc2)CSc2ncnn21` (stereo not drawn), the TGI is > 100 µM.

Regarding `CCOc1ccc(NC(=O)CC2C(=O)Nc3ccccc3S2=O)cc1` (stereo not drawn), the TGI was > 100 µM. Turning to `CC(C)(C)N1C(=O)N=[N+](/C(=C(\c2ccccc2)n2nc([O-])n(C(C)(C)C)c2=O)c2ccccc2)C1=O`, the TGI was > 100 µM. `COc1cc(-c2ccc(N=Nc3c(S(=O)(=O)O)cc4cc(S(=O)(=O)O)cc(N)c4c3O)c(OC)c2)ccc1N=Nc1c(S(=O)(=O)O)cc2cc(S(=O)(=O)O)cc(N)c2c1O`: the TGI was > 100 µM.

As for `c1ccc(N2CCN(CN3CCN(c4ccccc4)C3)C2)cc1`, the GI50 is > 100 µM and the TGI is > 100 µM. Consider `Clc1ccc(-c2ccc(CNCC3CCNCC3)o2)c(-c2ccccc2)c1`, for which the GI50 was 1.55 µM and the TGI was 2.93 µM. Regarding `COc1ccccc1NCc1nnc(CCCCCCCCc2nnc(CNc3ccccc3OC)o2)o1`, the TGI was > 100 µM. Compound `Brc1ccc2c(C3CN[C@@H](c4c[nH]c5cc(Br)ccc45)CN3)c[nH]c2c1` (stereo partly drawn) showed a TGI of 13.8 µM. With `Cn1cc(C2=C(c3cn(C)c4ccc(OCc5ccccc5)cc34)C(=O)NC2=O)c2ccccc21`, the GI50 was > 25 µM and the TGI is > 25 µM. As to `Nc1nonc1-c1nc2cnccc2n1C1CCCCC1`, the GI50 was > 25 µM and the TGI was > 25 µM. For the compound `Clc1ccc(Cl)c(NNc2cc(Cl)ccc2Cl)c1`, the TGI was > 10 µM. Consider `CC1OC2=N[C@@H]1C(=O)N[C@@H](Cc1ccccc1)C1=N[C@H](C(=O)N[C@@H](Cc3ccccc3)C3=N[C@H](C(=O)N[C@H]2Cc2ccccc2)C(C)O3)C(C)O1` (stereo partly drawn), for which the TGI was > 100 µM. The same measure, in the same setting: the value for `O=C(c1ccccc1)c1ccc2nc(-c3c(Cl)c(Cl)c(Cl)c(Cl)c3C(=O)N/N=C\C=C\c3ccccc3)[nH]c2c1` was > 100 µM. On to `CCC[CH2][Sn]1([CH2]CCC)[O]CC(c2ccccn2)C[O]1`, for which the GI50 was 33 µM and the TGI was > 100 µM. For `CCCOC(=O)c1ccc2c(c1)[N+](=O)C(C(=O)c1ccccc1)=C(C(F)(F)F)[N+]2=O`, in that order: 1.82 µM and 3.28 µM. For the compound `CCN(CC)CCNc1ccc(C)c2sc3ccccc3c(=O)c12` (tested in a mixture with another compound), the GI50 was 3.57 µM; the TGI was 13.7 µM and 14.5 µM. With `CCOC(=O)C(CS)NC(=O)CCCCCCCC(=O)O` (stereo not drawn), the TGI is > 100 µM.

For the compound `C[Si](C)(C)/N=C1\N2C(=NC1(C(F)(F)F)C(F)(F)F)Sc1ccccc12`, the TGI was > 50 µM. For the compound `COc1ccc(C(=O)Cc2ccc(Cl)cc2)cc1OC`, the TGI is > 100 µM. Turning to `Cn1c(N)c(Cc2ccc(Cl)cc2)c(=O)[nH]c1=O`, the TGI was > 100 µM. Still for that read-out and setting: the value for `COc1ccc(-n2sc3ncc(C)cc3c2=O)cc1` was > 100 µM; that for `O=C1Nc2ccc(Br)cc2C1=Nc1ccc2c(c1)OCO2` was > 100 µM; that for `CCOP(=O)(OCC)/C(C#N)=C/c1coc2cc(C)cc(C)c2c1=O` was > 100 µM.

For `CC(C)OC(=O)Nc1ccc(-c2nc(-c3cccc(OCCN4CCOCC4)c3)c(-c3ccnc(Br)c3)[nH]2)cc1`, the GI50 is 4.55 µM and the TGI was > 100 µM. For `COc1ccc(C(O)c2cc3c(N)c(C(=O)Nc4ccc(Br)cc4)sc3nc2C)cc1` (stereo not drawn), the GI50 is 3.93 µM and the TGI worked out at 39.8 µM. In the case of `O=C(/C=C/c1cccc2ccccc12)c1ccccc1`, the TGI stood at 25 µM. The same measure, in the same setting: the value for `COc1ccc(C2=Nn3c(nnc3-c3ccccc3)S/C2=C\c2ccc(-c3ccc([N+](=O)[O-])cc3)o2)cc1` was > 100 µM; that for `COc1cc2c3c(c1O)N=NC=3CCN=2` was 58 µM.

As to `COC(=O)CCC(NC(=S)N/N=C(\C)c1ccco1)C(=O)OC` (stereo not drawn), the TGI is > 100 µM. With `COc1ccc(OC)c2c(C(=O)O)c(C(C)c3ccccc3)ccc12` (stereo not drawn), the TGI was > 100 µM. For the compound `COc1cc(C(C)c2cc3c(cc2OCCN)OCO3)cc(OC)c1OC` (stereo not drawn), the TGI is > 100 µM. Regarding `CCOC(=O)N1CCN(c2ccc3ccc(N)nc3n2)CC1`, the TGI was > 100 µM. As for `CCOP(=O)(OCC)OC1c2[nH]ccc2-c2cc(C(=O)OC)[nH]c2C1OC` (stereo not drawn), the TGI is > 100 µM. Regarding `CC1=CP(=O)(OC(C)C)CC(C)=C1Cl` (stereo not drawn), the TGI is > 100 µM. For the compound `N#Cc1nc(-c2ccccc2C(=O)O)oc1N`, the TGI was > 100 µM.

`Cc1cn(C(=O)NC23CC4CC(CC(C4)C2)C3)c(=O)[nH]c1=O`: the TGI is > 100 µM. Same read-out and setting: then `COC(=O)Cc1c([C@H]2[C@H](CC(=O)OC)c3ccccc3N2C(=O)C(F)(F)F)[nH]c2ccccc12`, with > 100 µM. For the compound `CC(=O)Nc1cccc(C#Cc2cncnc2Nc2ccc(OCc3cccc(F)c3)c(Cl)c2)n1`, the GI50 is 1.51 µM and the TGI was > 25 µM. With `Cc1ccc(N=Nc2c(-c3ccccc3)nn(C(=O)CC(=O)Nc3ccc(Cl)cc3)c2-c2ccccc2)cc1`, the TGI was > 100 µM.

As for `O=C(C=P(c1ccccc1)(c1ccccc1)c1ccccc1)CC(=S)CC(=O)C=P(c1ccccc1)(c1ccccc1)c1ccccc1`, the TGI was > 100 µM.

Consider `C=C(CN1CCc2ccccc2C1)c1ccc(CCC(=O)Nc2ccccc2N)cc1`, for which the GI50 is 33.5 µM and the TGI was > 100 µM. Consider `O=C(N/N=C\c1c(O)ccc2ccccc12)c1ccncc1`, for which the TGI is > 17.5 µM. Turning to `COc1ccc(C2c3c(n(C)c(=O)n(C)c3=O)OC(N(C)C)(N(C)C)C2(F)F)cc1` (stereo not drawn), the TGI is > 100 µM. Take `COc1ccc(-c2nnc(-c3nsc4ccccc34)o2)cc1`: the TGI is > 100 µM. For the compound `N#Cc1nnc2ccccc2c1N`, the TGI is > 100 µM. `COc1ccc2c3ccc4c(c3n(C)c2c1)C(=O)C=CC4=O`: the TGI was > 100 µM. On the same count and under the same terms, then `O=C1C=C(Nc2ccccc2C(=O)c2ccccc2)c2ccccc2C1=O`, with > 100 µM. Consider `CC/C(=C(\c1ccc(Cl)cc1)c1ccc(OCCN2CCCCC2)cc1)c1ccc(O)cc1`, for which the GI50 is 1.72 µM and the TGI was determined as 3.67 µM. In the case of `Nc1ccc(N)c2c1C(=O)c1ccccc1C2=O`, the TGI was > 100 µM. Consider `O=C1C=CC(=O)C(c2cc(-c3ccc(Cl)cc3)nn2-c2ccccc2)=C1`, for which the GI50 is 21.9 µM and the TGI stood at 63.9 µM. As to `C=C1CC(OC)(C(OC)C(=O)N(C)[C@H]2OCO[C@H]3C2O[C@H](C[C@@H](COC)OC)C(C)(C)C3OC)O[C@H](C)[C@@H]1C` (stereo partly drawn), the TGI was 36.8 µM. In the case of `O=C1C=C(Nc2ccc([N+](=O)[O-])cc2)c2ccccc2C1=O`, the GI50 is 11.1 µM and the TGI amounted to 23.1 µM. For the compound `CCCCC1C=Cn2c(=O)oc3c(OC(C)C)c(OC(C)C)c(O)c1c32` (stereo not drawn), the TGI stood at 61.9 µM.

Regarding `O=C(CSCC(=O)N/N=C\c1cc(Cl)cc(Cl)c1O)N/N=C\c1cc(Cl)cc(Cl)c1O`, the TGI amounted to 8.09 µM. With `O=c1c2ccccc2nc(-c2ccccc2Cl)n1NCC1(O)OCC(O)C(O)C1O` (stereo not drawn), the TGI is > 100 µM. The same measure, in the same setting: then `CC(C)=C1C(=O)c2c(Cl)sc(Cl)c2C1=O`, with > 100 µM.

With `COc1cc(/C=C2\N=C(c3ccccc3)N(c3cc4cc(Sc5ccccc5)ccc4[nH]3)C2=O)cc(OC)c1OC`, the TGI is > 75 µM.

With `Clc1nc(Cl)c2ncn(CC#CCn3cnc4c(Cl)nc(Cl)nc43)c2n1`, the GI50 was 11.3 µM and the TGI is 24.5 µM. `C[C@]12CC[C@@H]3c4ccc(O)cc4CC[C@H]3[C@@H]1CC[C@@H]2NS(=O)(=O)c1cccc(OC(F)(F)F)c1`: the GI50 was 4.42 µM and the TGI is 15.5 µM. Consider `C=C1CCC(O)C/C1=C/C=C1\CCCC2(C)C1CCC2C(C)CCCC(C)C` (stereo not drawn), for which the TGI was > 56.6 µM. Turning to `CCc1ccccc1N1C(=O)C(=O)C(c2nc3ccccc3s2)C(=O)C1=O`, the TGI is > 100 µM. Consider `CC(C)(C)OC(=O)CCC(NC(=O)OCC1c2ccccc2-c2ccccc21)C(=O)NC(Cc1c[nH]c2ccccc12)C(=O)NC(CCCCNC(=O)OC(C)(C)C)C(=O)N1CCCC1C(=O)NCC(N)=O` (stereo not drawn) (Fmoc-E(OtBu)WK(Boc)PG-NH2; configuration not given here), for which the GI50 is 42.6 µM and > 100 µM; the TGI is > 100 µM. Take `CCN(CC)S(=O)(=O)c1ccc2nc(NC(=O)OC)[nH]c2c1`: the TGI is > 100 µM.

In the case of `NS(=O)(=O)c1ccc(N=Nc2ncccc2O)cc1`, the TGI is > 100 µM. `NC(=Nc1ccc(Cl)cc1)c1ccccc1N`: the TGI was > 100 µM.

As to `COC1(C)OC[C@@]2(C)OC(C)C1(C)C2O[Si](C(C)C)(C(C)C)C(C)C` (stereo partly drawn), the TGI was > 100 µM. With `C[C@]12CCC3[C@@H](CC[C@@H]4c5nonc5CC[C@]34C)C1CCC2=O` (stereo partly drawn), the TGI was > 100 µM. The compound `COC(=O)c1c(O)ccc2c1c1c(n2CCc2ccccc2)C(=O)c2ccccc2C1=O` registered a TGI of 29.9 µM. Take `Cc1nc2ccccn2c1NC(=O)NNC(=S)Nc1ccc(Cl)cc1`: the GI50 is > 100 µM and the TGI was > 100 µM. Consider `N#CC(C#N)=c1ccc(=C2N3CCCC3CN2C23CC4CC(CC(C4)C2)C3)cc1` (stereo not drawn), for which the TGI was > 100 µM.

Consider `CC(=O)c1c(C)cn(S(=O)(=O)NC(=O)Nc2nncs2)c1C`, for which the TGI was > 100 µM. On to `CCCC[C@@H](C=O)NC(=O)[C@H](CC(C)C)NC(=O)[C@H](CC(C)C)NC(=O)OCc1ccccc1` (Cbz-Leu-Leu-[Nle]-aldehyde), for which the GI50 was 3.02 µM and the TGI stood at 16.5 µM.

Take `C[C@]12CC[C@H](O)CC1=CC[C@@H]1C2CC[C@]2(C)NC(=O)C(C#N)CC12` (stereo partly drawn): the TGI was > 100 µM. Still for that read-out and setting: then `Cc1ccc2ccc(O)cc2c1`, with > 100 µM; and `O=C1NC(c2cccc3ccccc23)Nc2ccc(O)cc21` (stereo not drawn), with > 150 µM.

For the origin of these results see PubChem BioAssay (NCI).
